Measured values: PubChem BioAssay AID504332 (National Center for Advancing Translational Sciences (NCATS), 2011)
In all, about 350,000 compounds went through this assay and about 31,000 (8.9%) were called active. The inconclusive results got no clear call from the source; some entries with a clear call stand among them for comparison. The call rests on the fitted dose curve; in most records, active means well fitted inhibition curve with a large enough effect; inconclusive means small, poorly fitted or top-dose-only effect; inactive means no such curve, though single readings can be large or run the other way. Potencies of inconclusive entries are doubtful fits and often do not repeat.

What follows are molecules tested against Histone-lysine N-methyltransferase EHMT2 (Homo sapiens) (UniProt Q96KQ7) (assay: qHTS Assay for Inhibitors of Histone Lysine Methyltransferase G9a). Settings: G9a H3K9 monomethylation, AlphaScreen, 2 h; activity, negative = inhibition: at 59 µM (top of the series) unless noted.
Chain of UniProt Q96KQ7 (Q96KQ7 whole entry, looked up): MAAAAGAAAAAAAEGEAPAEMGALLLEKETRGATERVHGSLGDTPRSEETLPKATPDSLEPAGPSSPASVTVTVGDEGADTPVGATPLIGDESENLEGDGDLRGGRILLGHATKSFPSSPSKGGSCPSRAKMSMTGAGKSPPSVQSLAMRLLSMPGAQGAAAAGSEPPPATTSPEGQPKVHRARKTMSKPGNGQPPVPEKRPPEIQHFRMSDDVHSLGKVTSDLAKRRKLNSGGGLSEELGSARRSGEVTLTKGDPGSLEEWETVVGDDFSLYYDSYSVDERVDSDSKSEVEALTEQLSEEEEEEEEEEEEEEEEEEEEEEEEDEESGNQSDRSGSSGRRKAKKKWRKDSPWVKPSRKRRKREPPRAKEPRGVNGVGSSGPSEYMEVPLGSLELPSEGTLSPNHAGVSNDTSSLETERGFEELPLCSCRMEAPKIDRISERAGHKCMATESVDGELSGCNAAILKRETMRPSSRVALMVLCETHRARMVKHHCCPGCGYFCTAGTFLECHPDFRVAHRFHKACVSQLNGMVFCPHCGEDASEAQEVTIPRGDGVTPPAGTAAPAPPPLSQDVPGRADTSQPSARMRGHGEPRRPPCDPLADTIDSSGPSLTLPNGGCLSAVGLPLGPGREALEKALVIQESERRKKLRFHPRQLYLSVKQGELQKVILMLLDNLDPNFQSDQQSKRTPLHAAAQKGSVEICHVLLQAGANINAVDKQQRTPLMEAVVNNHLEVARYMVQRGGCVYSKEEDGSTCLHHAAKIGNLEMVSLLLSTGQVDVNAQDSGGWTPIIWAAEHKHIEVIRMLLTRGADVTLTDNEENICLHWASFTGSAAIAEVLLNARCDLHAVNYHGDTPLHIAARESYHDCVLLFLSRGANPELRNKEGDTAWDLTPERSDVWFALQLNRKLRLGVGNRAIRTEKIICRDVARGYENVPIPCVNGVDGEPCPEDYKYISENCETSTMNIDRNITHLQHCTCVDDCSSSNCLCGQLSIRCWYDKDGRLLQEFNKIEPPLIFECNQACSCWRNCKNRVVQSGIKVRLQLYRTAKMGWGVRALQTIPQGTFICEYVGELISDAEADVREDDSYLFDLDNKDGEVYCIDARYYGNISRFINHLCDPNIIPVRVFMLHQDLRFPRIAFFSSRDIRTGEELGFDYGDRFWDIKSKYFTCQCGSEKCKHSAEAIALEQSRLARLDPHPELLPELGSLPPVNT
Summary of the method: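 Chemiluminescent proximity detection of H3K9 monomethylation, read after 10 min bead incubation in the dark. Reaction: 20 nM G9a, 500 nM biotin-H3K9 peptide, 20 uM SAM cofactor, 2 h, room temperature, following 15 min enzyme-compound preincubation.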
Further: nearly all actives have a fitted effect of over 75% in size.
On the % scale 0 is the no-effect control and ±100 the full control effect; potency means the concentration at half of the fitted maximal effect; tags describe the fitted curve by direction and shape.

Question: For `CCOC(=O)C1=C(C)NC(=NC)SC1c1ccccc1` (stereo unspecified), which “activity, negative = inhibition” value is on record?
Answer: inactive: 2.48% [at 102 µM]

Question: With `Cc1ccccc1NC(=O)Cc1nc(COC(=O)C(C)C)cs1` as the molecule, how does the Potency read?
Answer: inconclusive: 89.1 µM [inhibitor, single point]

Question: With `O=C(Nc1ccc(C(=O)N2CCCc3ccccc32)cc1)c1cccs1` as the molecule, how does the “activity, negative = inhibition” value read?
Answer: inactive: 29.4% [at 102 µM]

Question: With `CC(C)(C)C(=O)NCCc1nc2ccccc2n1CCCCOc1ccc(Cl)cc1` as the molecule, how does the Potency read?
Answer: inconclusive: 28.2 µM [inhibitor, partial curve, poor fit]

Question: With `Cc1ccoc1C(=O)N1CCCC(CO)(Cc2ccc(F)cc2)C1` (stereo unspecified) as the molecule, how does the Potency read?
Answer: inconclusive: 3.16 µM [inhibitor, partial curve, poor fit]

Question: For `CC1CCC(N2CCN(S(C)(=O)=O)CC2)CC1` (stereo unspecified), which Potency is on record?
Answer: inconclusive: 1.26 µM [inhibitor, single point]

Question: `O=C(CNC(=O)c1ccccc1)N/N=C/C=C/c1ccccc1` was tested. Which “activity, negative = inhibition” value did it give?
Answer: inactive: 44.6% [at 102 µM]

Question: For `O=C1C(NS(=O)(=O)c2ccccc2)=C(N2CCN(c3ccc(F)cc3)CC2)C(=O)c2ccccc21`, which Potency is on record?
Answer: active: 5.62 µM

Question: How did the Potency turn out when `COc1ccc(OCCNc2cc(N3CCCCC3)ccc2[N+](=O)[O-])cc1` was run?
Answer: inconclusive: 7.94 µM [inhibitor, full curve, poor fit]

Question: With `CN(C)/C=C1\C(=O)N(c2ccc([N+](=O)[O-])cc2)N=C1c1ccccc1` as the molecule, how does the Potency read?
Answer: inconclusive: 44.7 µM [inhibitor, partial curve, poor fit]

Question: For `CC1CCN(S(=O)(=O)c2nnc(NC(=O)c3cccc([N+](=O)[O-])c3)s2)CC1`, which Potency is on record?
Answer: inconclusive: 89.1 µM [inhibitor, single point]

Question: With `COc1ccc(-c2nc(-c3ccccc3)c(-c3cc([N+](=O)[O-])ccc3C)[nH]2)cc1O` as the molecule, how does the Potency read?
Answer: active: 50.1 µM

Question: `CCN(CC)CCN1C(=O)C(=O)/C(=C(/O)c2ccc(S(=O)(=O)N3CCOCC3)cc2)C1c1ccc(C(C)(C)C)cc1` (stereo unspecified) was tested. Which Potency did it give?
Answer: inconclusive: 89.1 µM [inhibitor, single point]

Question: Which activity, negative = inhibition does the source give for `CCOC(=O)c1ccc(/[N+]([O-])=C/c2ccccc2)cc1` here?
Answer: inactive: -14.9% [at 0.501 µM]

Question: `Cc1ccc(Cn2c(C(=O)O)c(CNC3CCCCCC3)c3ccc(C)cc32)cc1` was tested. Which “activity, negative = inhibition” value did it give?
Answer: inactive: -33%

Question: With `CCCCn1c(N)c(N(C)C(=O)C2CCCC2)c(=O)[nH]c1=O` as the molecule, how does the Potency read?
Answer: inconclusive: 14.1 µM [inhibitor, single point]

Question: How did the Potency turn out when `Cc1c(C#N)c(NC(=O)CCl)n(Cc2ccccc2)c1C` was run?
Answer: active: 56.2 µM

Question: How did the Potency turn out when `CC(=O)Nc1ccc(/C(C)=N/NS(=O)(=O)c2ccccc2)cc1` was run?
Answer: inconclusive: 5.01 µM [inhibitor, partial curve, poor fit]

Question: Which Potency does the source give for `COc1cc2ncc(C(=O)c3ccccc3)c(N3CCN(Cc4ccccc4)CC3)c2cc1OC` here?
Answer: active: 35.5 µM

Question: Which “activity, negative = inhibition” value does the source give for `COc1ccc(-n2nc3c(N4CCCC(C(=O)NCc5cccc(F)c5)C4)nnc(C)c3c2C)cc1` (stereo unspecified) here?
Answer: inactive: -33%

Question: How did the Potency turn out when `COc1ccc(C(=O)NCC(=O)N/N=C/c2ccc([N+](=O)[O-])o2)cc1OC` was run?
Answer: inconclusive: 50.1 µM [inhibitor, partial curve, poor fit]

Question: Which “activity, negative = inhibition” value does the source give for `COc1ccc(N(Cc2ccccc2)S(=O)(=O)c2ccc(C)cc2)cc1` here?
Answer: inactive: 38% [at 102 µM]

Question: Which “activity, negative = inhibition” value does the source give for `C/C(=N\NC(=O)c1nnn(-c2nonc2N)c1C(C)C)c1ccc2ccccc2c1` here?
Answer: inactive: 6.91% [at 102 µM]

Question: With `CCCS(=O)(=O)Nc1ccc(-c2cn3c(n2)SCC3)cc1` as the molecule, how does the Potency read?
Answer: inconclusive: 79.4 µM [inhibitor, single point]

Question: How did the “activity, negative = inhibition” value turn out when `Cc1cccc(NC(=O)CC(=O)Nc2cccc(C)c2)c1` was run?
Answer: inactive: 17.6% [at 102 µM]

Question: For `O=S(=O)(/C=C/c1ccccc1)n1cnc2ccccc21`, which Potency is on record?
Answer: inconclusive: 89.1 µM [inhibitor, single point]

Question: Which Potency does the source give for `CCN(CC)CCCNC(=O)C1CCN(c2ncnc3c2sc2cccc(F)c23)CC1` here?
Answer: inconclusive: 70.8 µM [inhibitor, partial curve, poor fit]

Question: With `CCc1ccc(NC(=O)CN(c2ccc3c(c2)OCO3)S(=O)(=O)c2c(C)noc2C)cc1` as the molecule, how does the Potency read?
Answer: inconclusive: 39.8 µM [inhibitor, single point]

Question: How did the “activity, negative = inhibition” value turn out when `O=C(CCS(=O)(=O)Cc1ccccc1)N1CCc2ccccc2C1` was run?
Answer: inactive: 20.1%

Question: Which Potency does the source give for `O=C(NC(=S)NCc1ccc(F)cc1)c1ccccc1` here?
Answer: active: 50.1 µM

Question: How did the Potency turn out when `CCCC(=O)N(c1ccc2oc(C)c(C(C)=O)c2c1)S(=O)(=O)c1ccc(C(=O)O)cc1` was run?
Answer: active: 35.5 µM

Question: Which “activity, negative = inhibition” value does the source give for `O=C(NC(=S)N1CCOCC1)C12CCC3CC(CC(C3)C1)C2` here?
Answer: inactive: 9.58%

Question: `CCN(CC)S(=O)(=O)c1ccc(OC)c(NC(=O)c2cc(=O)[nH]c3ccccc23)c1` was tested. Which “activity, negative = inhibition” value did it give?
Answer: inactive: 11.3% [at 102 µM]

Question: With `Cc1ccc(-n2cc(-c3ccccc3)[nH]c2=O)cc1F` as the molecule, how does the Potency read?
Answer: inconclusive: 10 µM [inhibitor, single point]

Question: For `O=C(CSc1ccc(-c2cccnc2)nn1)Nc1ccc(F)cc1F`, which Potency is on record?
Answer: inconclusive: 35.5 µM [inhibitor, partial curve, poor fit]

Question: Which Potency does the source give for `CCc1cc2cc(C)ccc2nc1SCC(=O)N1CCN(C(=O)c2ccco2)CC1` here?
Answer: inconclusive: 31.6 µM [inhibitor, single point]

Question: How did the “activity, negative = inhibition” value turn out when `O=C(CCNS(=O)(=O)c1ccccc1C(F)(F)F)NNC(=O)C1COc2ccccc2O1` (stereo unspecified) was run?
Answer: inactive: 21.3%

Question: `COc1ccccc1N(C(=O)CNS(=O)(=O)c1ccccc1)C(C(=O)NCc1ccco1)C(C)C` (stereo unspecified) was tested. Which Potency did it give?
Answer: inconclusive: 79.4 µM [inhibitor, partial curve, poor fit]

Question: For `CC(NC(=O)CCC(=O)c1cccs1)c1ccccc1` (stereo unspecified), which Potency is on record?
Answer: inconclusive: 79.4 µM [inhibitor, partial curve]

Question: With `O=C(Cc1ccccc1)NC1(O)C(=O)c2ccccc2C1=O` as the molecule, how does the Potency read?
Answer: inconclusive: 79.4 µM [inhibitor, partial curve, poor fit]

Question: Which “activity, negative = inhibition” value does the source give for `O=C(CSc1nnc(-c2cccc(Br)c2)o1)N1CCOCC1` here?
Answer: inactive: 47.6% [at 102 µM]

Question: How did the Potency turn out when `CCC(=O)Nc1cccc(NC(=S)NC(=O)c2cccc(C)c2)c1` was run?
Answer: inconclusive: 3.16 µM [inhibitor, full curve]

Question: How did the “activity, negative = inhibition” value turn out when `Cc1ccc2c(c1)-c1nc(-c3ccc4c(c3)NC(=O)CO4)cc(-c3ccc(Cl)cc3)c1CO2` was run?
Answer: inactive: 2.35%

Question: How did the Potency turn out when `COc1ccc(N2CCN(C(=O)c3ccc(NS(=O)(=O)c4cccc(F)c4)cc3)CC2)cc1` was run?
Answer: inconclusive: 2.82 µM [inhibitor, partial curve, poor fit]

Question: With `COC(=O)CS(=O)(=O)c1nnc([C@H](Cc2ccccc2)NC(=O)OC(C)(C)C)o1` as the molecule, how does the Potency read?
Answer: inconclusive: 6.31 µM [inhibitor, single point]

Question: For `Cc1ccc(NC(=O)Cn2cc3c(n2)CCCCC3)cc1`, which “activity, negative = inhibition” value is on record?
Answer: inactive: -3.97%

Question: Which Potency does the source give for `CC(CCc1ccccc1)C(=O)NO` (stereo unspecified) here?
Answer: inconclusive: 11.2 µM [inhibitor, partial curve]

Question: `CC(C)C(=O)Nc1ccc(N2CCN(c3ccc(F)cc3)CC2)cc1` was tested. Which “activity, negative = inhibition” value did it give?
Answer: inactive: -0.439% [at 102 µM]

Question: How did the “activity, negative = inhibition” value turn out when `COC(=O)c1c(Oc2ccc(C(C)=O)cc2)nnc(-c2ccccc2)c1-c1ccccc1` was run?
Answer: inactive: -31.9%

Question: `CCCc1c(C)c2ccc(O)c(CN3CCN(c4ccc(F)cc4)CC3)c2oc1=O` was tested. Which Potency did it give?
Answer: inconclusive: 0.794 µM [inhibitor, full curve, poor fit]

Question: Which Potency does the source give for `COc1cc(CN2CCNC(=O)C2CC(=O)NCCCC2CCCC2)cc(OC)c1` (stereo unspecified) here?
Answer: active: 70.8 µM

Question: `COC(=O)c1oc2ccccc2c1-n1cccc1` was tested. Which Potency did it give?
Answer: inconclusive: 100 µM [inhibitor, single point]

Question: How did the Potency turn out when `CCc1cccc(NC(=O)CSCc2cc(=O)[nH][nH]2)c1` was run?
Answer: inconclusive: 1.41 µM [inhibitor, single point]

Question: How did the Potency turn out when `Cc1cccc(-c2nc(CSc3nc4c(c(=O)[nH]3)CCC4)c(C)o2)c1` was run?
Answer: inconclusive: 89.1 µM [inhibitor, single point]

Question: `CC1=C(C)/C(=N/OC(=O)c2cccc([N+](=O)[O-])c2)C=CC1=O` was tested. Which Potency did it give?
Answer: active: 10 µM

Question: With `CCOC(=O)c1ccccc1NC(=O)c1cc2c(=O)oc3ccc(C)cc3c2s1` as the molecule, how does the “activity, negative = inhibition” value read?
Answer: inactive: 5.82%

Question: `CCS(=O)CCSc1nc2ccccc2s1` (stereo unspecified) was tested. Which activity, negative = inhibition did it give?
Answer: inconclusive: -66.3% [inhibitor]

Question: For `COc1ccc(OCC(=O)N2CCN(C(=O)COc3ccccc3)CC2)cc1`, which “activity, negative = inhibition” value is on record?
Answer: inactive: 21%

Question: Which Potency does the source give for `Cc1c(C(N)=O)c(N)c(C(=O)c2ccccc2)n1-c1ccccc1` here?
Answer: inconclusive: 3.98 µM [inhibitor, partial curve, poor fit]

Question: How did the Potency turn out when `O=C(/C=C/c1cccnc1)c1ccc([N+](=O)[O-])cc1` was run?
Answer: active: 12.6 µM

Question: `Cc1cc(C)cc(N(CC(=O)N/N=C/c2ccncc2)S(=O)(=O)c2ccccc2)c1` was tested. Which Potency did it give?
Answer: inconclusive: 89.1 µM [inhibitor, single point]

Question: `CN(Cc1cccnc1)C(=O)c1cc(COc2ccc3ncccc3c2)on1` was tested. Which Potency did it give?
Answer: inconclusive: 56.2 µM [inhibitor, partial curve, poor fit]

Question: How did the Potency turn out when `CC(C)n1c(=N)c(C(=O)NCCc2ccccc2)cc2c(=O)n3ccccc3nc21` was run?
Answer: inconclusive: 100 µM [inhibitor, single point]

Question: `CCc1ccc(C2CC(=O)Nc3cc4c(cc32)OCO4)cc1` (stereo unspecified) was tested. Which Potency did it give?
Answer: inconclusive: 7.94 µM [inhibitor, partial curve, poor fit]

Question: With `N#CC1=C(N)N=C(SCc2cccc3ccccc23)C(C(N)=O)C12CCCCC2` (stereo unspecified) as the molecule, how does the Potency read?
Answer: active: 44.7 µM

Question: With `O=C(Nc1ccc(Cl)cc1Cl)c1cc(S(=O)(=O)N2CCc3ccccc32)ccc1F` as the molecule, how does the “activity, negative = inhibition” value read?
Answer: inactive: -5.1%

Question: With `Cc1cc(NC(=O)Nc2ccc(OCc3ccccc3)cc2)n(C)n1` as the molecule, how does the Potency read?
Answer: inconclusive: 0.708 µM [inhibitor, partial curve, poor fit]

Question: With `COc1ccc(OCC(=O)Nc2cc(OC)cc(OC)c2)cc1` as the molecule, how does the “activity, negative = inhibition” value read?
Answer: inactive: 26.9%

Question: With `CN1C(=O)C(=O)/C(=C(/O)c2ccccc2)C1c1ccccc1` (stereo unspecified) as the molecule, how does the Potency read?
Answer: inconclusive: 79.4 µM [inhibitor, single point]

Question: Which Potency does the source give for `CN(Cc1ccon1)C(=O)CC1C(=O)NCCN1Cc1cccc(Oc2ccccc2)c1` (stereo unspecified) here?
Answer: inconclusive: 100 µM [inhibitor, single point]

Question: How did the Potency turn out when `COCCN(C(=O)c1ccc(N2CCCC2=O)cc1)c1c(N)n(Cc2ccccc2)c(=O)[nH]c1=O` was run?
Answer: active: 7.94 µM
